From the RNAGym collection of RNA variant scans (doi:10.7554/elife.90254) come the findings set out here.

Read counts are not given, so values of variants with three or more changes are uncertain.

B1: LINE1-full (parent)
chain: UACGUAGGUGGUUUUCCCCUGAUAGUGCUAAGGGGGCCUGGAAGUUUGGACUGGGCAGAGCUCAACACAGCGUGGCAAAGUGGCUGUGGCUAGACUGCCUCUCUGGAUUCCUCGUCACUCAGCAGGGCAUCUCUGAGAGAAAUGCC

The variants in the data set derive from B1. Put plainly: self-cleavage, relative activity (ratio to wild type); higher = more cleavage; in vitro, sequencing; the parent is a self-cleaving ribozyme.
Regarding UACGUAGGUGGUUUUCCCCUGAUAGUGCUAAGGGGGCCUGGAAGUUUGGACUGGGCAGAGCUCAACACAGCGUGGCCAAGUGGCUGUGGCUAGACUGCCUCUCCGGAUUCUUCGUCACUCAGCAGGGCAUCUCUGAGAGAAAUGCC, the self-cleavage came out at 1.51.

With UACGUAGGUGGUUUUCCCUUGAUAGUGCUAAGGGGGCCUGGAAGUCUGGACUGGGCAGAGCUCAACACAGCGUGGCAAAGUGGCUGUGGCUAGACUGCCUCUCAGGAUUCCUCGUCACUCAGCAGGGCAUCUCUGAGAGAAAUGCC, the self-cleavage was found to be 0.9.

Take UACGUAGGUGGUUUUCCCUUGAUAGUGCUAAGGGGGCCUGGAAGUUUGGACUGGGCAGAACUCGACACAGCGUGGCAAAGUGGCUGUGGCUAGACUGCCUCUCUGGAUUCCACGUCACUCAGCAGGGCAUCUCUGAGAGAAAUGCC: the self-cleavage was 0.07.

In the case of UACGUAGGUGGUUUUCCCCUGAUAGUGCUAAGGGGGCCUGGAAGCUUGGACUGGGCAGAGCUCAACACAGCGUGGCAAAGUGGCUGUGGCUGGACUGCCUCUCUGGAUUCCUCGUCACUCAGCGGUGCAUCUCUGAGAGAAAUGCC, the self-cleavage turned out to be 0.19.

On to UACGUAGGUGGUUUUCCCCUGAUAGCGCUAAGGGGGCCUAGAAGUUUGGACUGGGCAGAGCUCAACACAGCGUGGCAAAGCGGCUGUGGCUAGACUGCCUCUCUGGAUUCCCCGUCGCUCAGCAGGGCAUCUCUGAGAGAAAUGCC, for which the self-cleavage was 0.

As for UACGUAGGUGGUUUUCCCCUGAUAGUGCUAAGGGGGCCUGGAAGUUUGGACUGGGCAGUGCUCAACACAGCGUGGCAAAGUGGCUGUGGCUAGGCUGCCUCUCUGAAUCCCUCGUCACUCAGCAGGGCAUCUCUGAGAGAAAUGCC, the self-cleavage was determined as 2.47.

Regarding UACGUAGGUGGUUUUCCCCUGAUAGUGCUGAGGGGGCCUGGAAGUUUGGACUGGGCAGAGCUCGACACAGCGUGGCGGAGUGGCUGUGGCUAGACUGCCUCUCUGGAUUCCUCGUCACUCAGCAGGGCAUCUCUGAGAGAAAUGCC, the self-cleavage was 0.

Regarding UACGUAGGUGGUUUUCCCCUGAUAGUGCUAAGGGGGCCUGGAAGUCUGGACUGGGCAGAGCUCAACACAGCGUGGCAAAGUGGCUGUGGCUAGACUGCCUCUCUGGAUUCCACGUCACUCAGCUGGGCGUCUCUGAGAGAAAUGCC, the self-cleavage was determined as 2.3.

Regarding UACGUAGGUGGUUUUCCCAUGAUAGUGCUAAGGGGGCCUGGAAGUUUGGACUGGGCAGAGCACAACACAGCGUGGCAAAGUGGCUGUGGCUAGACUGCCUCUCUGGAUUCCUCGUCGCUCAGCAGGGCAUCUCCGAGAGAAAUGCC, the self-cleavage was found to be 0.09.

As for UACAUAGGUGGUUUUCCCCUGAUAGUGCUAAGGGGGCCUGGAAGUUUGGACUGGGCAGAGCUCAACACAGCGUGGCAAAGUGGCUGUGGCUAGACUGGCUCUCUGGAUUCCUCGUCAUUCAGCAGGGCAUCUCUGAGAGAAACGCC, the self-cleavage worked out at 0.18.

Turning to UACGUAGGUGGUUUUCCCCUGUUAGUGCUAAGGGGGCCUGGAAGUUUGGACUGGGCAGAGCUCAACACAGCGUGGCAAAGUGGCUGUGGCUAGGCUGCCUCACUGGAUUCCUCGUCACUCAGCAGGGCAUCUCUGAGAGAAAUGCC, the self-cleavage came out at 0.

UACGUAGGUGGGUUUCCCCUGAUAGUGCUAAGGGGGCCUGGAAGUAUGGACUGGGCAGAGCUCAACACAGCGUGGCAAAGUAGCUGUGGCUAGUCUGCCUCUCUGGAUUCCUCGUCACUCAGCAGGGCAUCUCUGAGAGAAGCGCC: the self-cleavage worked out at 0.32.

Consider UACGUAGGUGGUUUUCCCCAGAUAGUGCUAAGGGGGCCUGGAAGUUUGGACUGGGCAGAGCUCAACACAGCGCGGCAAAGUGGCUGUGGCUAGACUGCCUCUCUGGAUUCCUCGUCACUCAGCAGGGCAUCUCUGGGAGAAAUGCC, for which the self-cleavage stood at 0.

With UACGUAGGUGGUUUUCCCCUGAUAGUGCUAAGGGGGCCUGGAAGUUUGGACUGGGCAGAGCUCAACACAGCGUGGCAAAGUGGCUGUGGCUAGACUGCCUCUCUGGAUUCCCCGCCACUCAGCAGGGCAUCCCUGAGAGAAAUGCC, the self-cleavage came to 1.11.

For UACGUAGGUGGUCUUCCCCUGAUAGUGCUAAGGGGGCCUGGAAGUUUGGACUGGGCAGUGGUCAACACAGCGUGGCUAAGUGGCUGUGGCUAGACUGCCUCUCUGGAUUCCUCGUCACUCAGCAGGGCAUCUCUGAGAGAAAUGCC, the self-cleavage was found to be 0.03.

Turning to UACGUAGGUGGUUUUCCCCAGAUAGUGCUCAGGGGGCCUGGAAGUUUGGACUGGGCAGAGCUCAACACAGCGUGGCAAAGUGGCUGUGGCUGGACUGCCUCACUGGAUUCCUCGUCACUCAGCAGGGCAUCUCUGAGAGAAAUGCC, the self-cleavage was found to be 0.

As for UACGUAGGUGGUUAUCCCCUGAUAGUGCUAAGGGGGCCUGGAAGUUGGGACUGGGCAGAGCUCAACACAGCGUGGCAAAGUGGCUGCGGCUAGACUGCCUCUCCGGAUUCCUCGUCACUCAGCAGGGCAUCUCUGAGGGAAAUGCC, the self-cleavage was 0.

With UACGUAGGUGGUUUACCCCUGAUAGUGCUAAGGGGGCCUGGAAGUUUGGACUGGGCAGAGCUCAACACAGCGUGGCAAGGUGGCUGUGGCUAGACUGCCUCUCUGGAUUCCUCGUCGCUCAGCAGGGCAACUCUGAGAGAAAUGCC, the self-cleavage stood at 0.48.

On to UACGUAGGUGGUUGUCCCCUGAUAGUGCUAAGGGGGCCUGGAAGUUUGGACUGGGCAGAGCCCAACACAGCGUGGCAAAGCGGCUGUGGCUAGACUGCCUCUCUGGAUUCCUCGUCACUCAGCAGGGCAUCUCUGAGAGAAAUGCC, for which the self-cleavage stood at 0.

For UACGUAGGAGGUUUUCCCCUGAUAGUGCUAAGGGGGCCUGGAAGUUUGGACAGGGCAGAGCUCAACACAGCGUGGCAAGGUGGCUGAGGCUAGACUGCCUCUCUGGAUUCCUCGUCACUCAGCAGGGCAUCUCUGAGAGAAAUGCC, the self-cleavage was determined as 0.23.

Regarding UACGUAGGUGGUUUUCCCCUGAUAGUGCUAAGGGGGCCUGGAAGUUUGGACUGGGCAGAGCCCAACACAGCGUGGCAAGGUGGCUGUGGCUAGACUGCCUCUCUGGAUUCCACGCCACUCAGCAGGGCAUCUCUGAGAGAAAUGCC, the self-cleavage was 0.

Consider UACGUAGAUGGUUUUCCCCUGAUAGUGCUAAGGGGGCCUGGAAGUUAGGACUGGGCAGAGCUCAACACAGCGUGGCAAAGUGGCUGCGGCUAGACUGCCUCUCUGGAUUCCUCGUCGCUCAGCAGGGCAUCUCUGAGAGAAAUGCC, for which the self-cleavage was 1.06.

Regarding UACGUAGGUGGUUUUCCCCUGAUAGUGCUAAGGGGGCCUGGAAGUUUGGACUGGGCGGAGCCCAACACAGCGUGGCAAAGUGGCUGUGGCUAGACUGCCUCUCUGGACUCCUCGUCACUCAGCAGGGCAUCUCUGAGAGAAAUGCC, the self-cleavage turned out to be 0.5.

Turning to UACGUAGGCGGUUUUCCCCUGAUAGUGCUAAGGGGGCCUGGAAGUUUGGACUGGGCAGAGCUCAACACAGCGUGGCAAAGUGGCUGUGGCUAGACUGCCUCUCUGGAUUCCUCGUCACUCAGCAGGGCAUCUCUGAGAGGGAUGCC, the self-cleavage was determined as 0.63.

UACGUAGGUGGUUUUCCCCUGAUAGUGCUAAGGGGGCCUGGUAGUUUGGACUGGGCUGAGCUCAACACAGCGUGGCAAAGUGGCUGUGGCUAGACUGCCUCUCUGGAUUCCUCGUCACUCAGCAGGGUAUCUCUGAGAGGAAUGCC: the self-cleavage worked out at 0.04.

Consider UACGUAGGUGGUUCUCCCCUGAUAGUGCUAAGGGGGCCUGGAAGUUUGGACUGGGCAGAGCUCAACACAGCGUGGCAAAGUGGCUGUGGCUAGACUGCCUCUCUGGACUCCUCGUCACUCAGCAGGGCGUCUCUGAGAGAAAUGCC, for which the self-cleavage turned out to be 1.86.

For UACGUAGGUGGUUUUCCCCUGAUAGUGCUAAGGGGGCCUGGAAGUUUGGACUGGGCAGAGCUCAACACAGCGUGGCAAAGUGGCUGCGGCUAGACUGCCUCUCUGGAUUCCUCGUCACCCAGCAGGGCAUCUCUGAGGGAAAUGCC, the self-cleavage was found to be 0.

As for UACGUAGGUGGUUUUCCCCUGAUAGUGCUAAGGGGGCCUGGAAGUUUGGACUGGGCAGAGCUCAACACAGCGUGGCAAAGUGGCUGUGGCUAGACUGCUUCUCUGGAUUCCUCGUCACUCAGCUUGGUAUCUCUGAGAGAAAUGCC, the self-cleavage came out at 1.05.

Take UACGUAGGCGGUUUUCCCCUGAAAGUGCUAAGGGGGCCUGGAAGUUUGGACUGGGCAGAGCUCUACACAGCGUGGCAAAGUGGUCGUGGCUAGACUGCCUCUCUGGAUUCCUCGUCACUCAGCAGGGCAUCUCUGAGAGAAAUGCC: the self-cleavage is 0.06.

For the variant UACGUAGGUGGUUUUCCCUUGAUAGUGCUAAGGGGGCCUGGAAGUUUGGACUGGGCAGAGCCCAACACAGCGUGGCAAAGUGGCUGUGGCUAGGCUGCCUCUCUGGAUUCCUCGUCACUCAGCAGGGCAUCUCUGAGAGAAAUGCC, the self-cleavage came to 0.09.

As for UACGUAGGUGGUUCUCCCCAGAUAGUGCUAAGGGGGCCUGGAAGUUUGGACUGGGCAGAGCUCAACACAGCGUGGCAAAGUGGCUGUGGCUAGACUGCCUCUCUGGAUUCCUCGUCACUCAGCAGGGCAUCUCCGAGAGAUAUGCC, the self-cleavage was determined as 1.02.

Turning to UACGUAGGUGGUUGUCCCCUGAUAGUGCUAAGGGGGCCUGGAAGUUUGGACUGGGUAGAGCUCAACACAGCGUGGCAAAGUGGCUGUGGCUAGACUGCCUCUCUGGAUUCCUCGUCACUCAGCAGGGCAUCUCUGUGUGAAAUGCC, the self-cleavage came to 0.2.

As to UACGUAGGCGGUUUUCCCCUGAUAGUGCUAAGGUGGCCUGGAAGUUUGGACUGGGCAGAGCUCAACACAGCGUGGCAAAGUGGCUGUGGCUAGACUGCCUCUCUGGAUUCCUCGUCACUCAGCAGGGCAUCCCUGAGAGAAAUGCU, the self-cleavage was 1.88.

On to UACGUAGGUGGUUUUCCCCUGAUAGUGCUAAGGGGUCCUGGAAGUUUGGACUGGGCAGAGCUCAUCACAGCGUGGCAAAGUGGCUGUGGCUAGACUGCCUCUCUGGAUUCCUCGUCACUCAGCAGGGCAUCUCAGAGAGAAAUGCC, for which the self-cleavage is 0.2.

Regarding UACGUAGGUAGUUUUCCCCUGAUGGUGCUAAGGGGGCCUGGAAGUUUGGACUGGGCAGAGCUCAACACAGCGUGGCAAAGUGGCUGUGGCUAGACUGCCUCUCUGGACUCCUCGUCACUCAGCAGGGCAUCUCUGAGAGAAAUGCC, the self-cleavage came to 1.31.

Turning to UACGUAGGUGGUUUUCCCCUGAUACUGCUAAGGGGGCCUGGAAGUUUGGACUGGGCAGAGCUCAACACAGCGUGGCAAAGUGGCUGUGGCUAGACUGCCUCUCCGGAUUCCUCGUCACUCAGCCGGGCAUCUCUGAGAGUAGUGCC, the self-cleavage was 0.92.

Take UACGUAGGUGGUUUCCCCCUGAUAGUGCUAAGGGGGCCUGGAAGUUUGGACUGGGCAGAGCUCAACACAGCGUGGCAAAGUGGCUGUGGCUAGACUGCCUUUCUGGACUCCUCGUCACUCAGCAGGGCAUCUCUGAGAGAAAUGCC: the self-cleavage was found to be 1.84.

Regarding UACGUAGGUGGUUUUCCCCUGAUAGUGCUAAGGGGGCCUGGAAGAUUAGACAGGGCAGAGCUCAACACAGCGUGGCAAAGUGGCUGUGGCUAGACUGCCUCUCUGGAUUCCUCGUCACUCAGCAGGGCAUCUCUGAGAGAAAUGCC, the self-cleavage was found to be 1.21.

Consider UACGUAGGUGGUUUUCCCCUGAUAGUGCUAAGGGGGCCUGGAAGUUUGGACUGGGCAGAGCUCAACACAGCGUGGCUAAGUGGCUGUGGCUAGACAGCCUCUCUGGAUUCCUCGUUACUCAGCAGGGCAUCUCUGAGAGAAAUGCC, for which the self-cleavage is 0.03.
